Some of the results follow. Cut-off read from the data, not from the text of the source: active = 3.2 or more and inactive = the rest. Most of these values are background signal.
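Note: displayed peptides selected on beads carrying the immobilized SH2 domain, with library peptides lacking any tyrosine serving as negative controls.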

The first test addresses SHP2 C-SH2 domain E139D. In words: enrichment score (SH2-bound / input frequency) (ratio); bacterial display of known human phosphotyrosine sites (pTyr-Var adds point mutants) read by sequencing; higher = stronger binding; tyrosines were phosphorylated by kinases first. The settings on record: peptide library: pTyr-Var.
On to RRIHSYRCHLW [VHL_Y112_G114C], for which the enrichment score is inactive: 0.387.
Take KDFTIHNPNLL [VANGL1_Y290_Y290H]: the enrichment score was inactive: 1.17.
On the same count and under the same terms, with ISSLDYISKSK [VAV3_Y294_T298S] the figure was inactive: 0.704; with AEPNIYQEKLS [USP54_Y1233_D1231N], inactive: 0.999; with TPGPNYCPGFN [USH2A_Y463_R464C_YF], inactive: 0.586.
With IGMIIYFARKA [VCAM1_Y718], the enrichment score was inactive: 0.708.
Still for that read-out and setting: with SHNELYFEAAE [VANGL1_Y344_E347A_YF] the figure was inactive: 0.652; with LNEVGYDDIGG [VCP_Y203], inactive: 0.433.
Still for that read-out and setting: next, VFDMLYQVANL [USP24_Y1087_L1089V]: inactive: 1.47.
Still for that read-out and setting: with KLKRSYPSPDI [USP8_Y717_S718P] the figure was inactive: 1.09; with NSRYTYKLEVK [USH2A_Y3747], inactive: 0.907.
As to RRIHSYRRHLW [VHL_Y112_G114R], the enrichment score was inactive: 0.173.
The same measure, in the same setting: next, NDDDVYRSLEE [VAV2_Y142]: inactive: 0.638; AEPDIYQEKLS [USP54_Y1233]: inactive: 0.541.
Still for that read-out and setting: with ASELGYQFQAI [UROD_Y133_V134Q] the figure was inactive: 0.792; with HNELFYEAAEH [VANGL1_Y345_E347A_YF], inactive: 1.05; with LHAAAYRNALA [UQCRC2_Y182], inactive: 0.733.
The same measure, in the same setting: next, SEELHYYVQNH [UQCRC2_Y207_F208Y]: inactive: 0.762; DGTIVCTGLET [USH2A_Y4487_Y4487C]: inactive: 0.918.

The target of the next test is SHP2 C-SH2 domain wild-type. The test is described as above. Conditions: peptide library: pTyr-Var.
For the molecule RRIHSYRCHLW [VHL_Y112_G114C], the enrichment score was inactive: 0.489.
The same measure, in the same setting: with KDFTIHNPNLL [VANGL1_Y290_Y290H] the figure was inactive: 0.937.
On the same count and under the same terms, with ISSLDYISKSK [VAV3_Y294_T298S] the figure was inactive: 0.609.
On the same count and under the same terms, with AEPNIYQEKLS [USP54_Y1233_D1231N] the figure was inactive: 0.919; with TPGPNYCPGFN [USH2A_Y463_R464C_YF], inactive: 0.717; with IGMIIYFARKA [VCAM1_Y718], inactive: 0.662.
SHNELYFEAAE [VANGL1_Y344_E347A_YF]: the enrichment score was inactive: 0.622.
The same measure, in the same setting: next, LNEVGYDDIGG [VCP_Y203]: inactive: 0.558; VFDMLYQVANL [USP24_Y1087_L1089V]: inactive: 1.29; KLKRSYPSPDI [USP8_Y717_S718P]: inactive: 0.616.
NSRYTYKLEVK [USH2A_Y3747]: the enrichment score was inactive: 0.653.
Same read-out and setting: next, RRIHSYRRHLW [VHL_Y112_G114R]: inactive: 0.208; NDDDVYRSLEE [VAV2_Y142]: inactive: 0.549; AEPDIYQEKLS [USP54_Y1233]: inactive: 0.616.
Take ASELGYQFQAI [UROD_Y133_V134Q]: the enrichment score is inactive: 0.826.
On to HNELFYEAAEH [VANGL1_Y345_E347A_YF], for which the enrichment score was inactive: 0.89.
As for LHAAAYRNALA [UQCRC2_Y182], the enrichment score was inactive: 0.831.
With SEELHYYVQNH [UQCRC2_Y207_F208Y], the enrichment score was inactive: 1.08.
On to DGTIVCTGLET [USH2A_Y4487_Y4487C], for which the enrichment score was inactive: 0.747.

For the next test, the target named is SHP2 N-SH2 domain L43F. The description is as above. The settings on record: peptide library: pTyr-Var.
As for RRIHSYRCHLW [VHL_Y112_G114C], the enrichment score was inactive: 0.425.
On the same count and under the same terms, with KDFTIHNPNLL [VANGL1_Y290_Y290H] the figure was inactive: 1.13; with ISSLDYISKSK [VAV3_Y294_T298S], inactive: 0.604; with AEPNIYQEKLS [USP54_Y1233_D1231N], inactive: 0.927.
Same read-out and setting: next, TPGPNYCPGFN [USH2A_Y463_R464C_YF]: inactive: 0.691; IGMIIYFARKA [VCAM1_Y718]: inactive: 0.598; SHNELYFEAAE [VANGL1_Y344_E347A_YF]: inactive: 0.7.
Same read-out and setting: next, LNEVGYDDIGG [VCP_Y203]: inactive: 0.543; VFDMLYQVANL [USP24_Y1087_L1089V]: inactive: 1.62.
In the case of KLKRSYPSPDI [USP8_Y717_S718P], the enrichment score is inactive: 0.517.
Same read-out and setting: with NSRYTYKLEVK [USH2A_Y3747] the figure was inactive: 0.804.
RRIHSYRRHLW [VHL_Y112_G114R]: the enrichment score was inactive: 0.176.
NDDDVYRSLEE [VAV2_Y142]: the enrichment score is inactive: 0.523.
For AEPDIYQEKLS [USP54_Y1233], the enrichment score was inactive: 0.598.
With ASELGYQFQAI [UROD_Y133_V134Q], the enrichment score was inactive: 0.766.
Still for that read-out and setting: next, HNELFYEAAEH [VANGL1_Y345_E347A_YF]: inactive: 1.01; LHAAAYRNALA [UQCRC2_Y182]: inactive: 0.559.
In the case of SEELHYYVQNH [UQCRC2_Y207_F208Y], the enrichment score was inactive: 0.8.
Take DGTIVCTGLET [USH2A_Y4487_Y4487C]: the enrichment score was inactive: 0.558.

For a further test, the target named is SHP2 N-SH2 domain T42A. Described as above. The settings on record: peptide library: pTyr-Var.
RRIHSYRCHLW [VHL_Y112_G114C]: the enrichment score was inactive: 0.375.
With KDFTIHNPNLL [VANGL1_Y290_Y290H], the enrichment score was inactive: 0.779.
With ISSLDYISKSK [VAV3_Y294_T298S], the enrichment score is inactive: 0.55.
On the same count and under the same terms, next, AEPNIYQEKLS [USP54_Y1233_D1231N]: inactive: 0.722; TPGPNYCPGFN [USH2A_Y463_R464C_YF]: inactive: 0.552.
Consider IGMIIYFARKA [VCAM1_Y718], for which the enrichment score was inactive: 0.656.
Still for that read-out and setting: with SHNELYFEAAE [VANGL1_Y344_E347A_YF] the figure was inactive: 0.609.
Still for that read-out and setting: with LNEVGYDDIGG [VCP_Y203] the figure was inactive: 0.792; with VFDMLYQVANL [USP24_Y1087_L1089V], inactive: 1.64.
The same measure, in the same setting: with KLKRSYPSPDI [USP8_Y717_S718P] the figure was inactive: 0.458.
On to NSRYTYKLEVK [USH2A_Y3747], for which the enrichment score was inactive: 0.805.
Still for that read-out and setting: next, RRIHSYRRHLW [VHL_Y112_G114R]: inactive: 0.164; NDDDVYRSLEE [VAV2_Y142]: inactive: 0.539.
Same read-out and setting: next, AEPDIYQEKLS [USP54_Y1233]: inactive: 0.503.
Still for that read-out and setting: with ASELGYQFQAI [UROD_Y133_V134Q] the figure was inactive: 0.775; with HNELFYEAAEH [VANGL1_Y345_E347A_YF], inactive: 0.847; with LHAAAYRNALA [UQCRC2_Y182], inactive: 0.774.
Consider SEELHYYVQNH [UQCRC2_Y207_F208Y], for which the enrichment score was inactive: 0.825.
The same measure, in the same setting: with DGTIVCTGLET [USH2A_Y4487_Y4487C] the figure was inactive: 0.834.

The target of a further test is SHP2 N-SH2 domain T52S. The test is described as above. The settings on record: peptide library: pTyr-Var.
RRIHSYRCHLW [VHL_Y112_G114C]: the enrichment score is inactive: 0.425.
On the same count and under the same terms, with KDFTIHNPNLL [VANGL1_Y290_Y290H] the figure was inactive: 0.871; with ISSLDYISKSK [VAV3_Y294_T298S], inactive: 0.583.
Same read-out and setting: next, AEPNIYQEKLS [USP54_Y1233_D1231N]: inactive: 0.736; TPGPNYCPGFN [USH2A_Y463_R464C_YF]: inactive: 0.839; IGMIIYFARKA [VCAM1_Y718]: inactive: 0.667.
Still for that read-out and setting: next, SHNELYFEAAE [VANGL1_Y344_E347A_YF]: inactive: 0.676; LNEVGYDDIGG [VCP_Y203]: inactive: 0.702.
VFDMLYQVANL [USP24_Y1087_L1089V]: the enrichment score is inactive: 1.41.
Same read-out and setting: with KLKRSYPSPDI [USP8_Y717_S718P] the figure was inactive: 0.591.
Same read-out and setting: with NSRYTYKLEVK [USH2A_Y3747] the figure was inactive: 0.802; with RRIHSYRRHLW [VHL_Y112_G114R], inactive: 0.21; with NDDDVYRSLEE [VAV2_Y142], inactive: 0.454.
On the same count and under the same terms, with AEPDIYQEKLS [USP54_Y1233] the figure was inactive: 0.559; with ASELGYQFQAI [UROD_Y133_V134Q], inactive: 0.881; with HNELFYEAAEH [VANGL1_Y345_E347A_YF], inactive: 1.39.
Turning to LHAAAYRNALA [UQCRC2_Y182], the enrichment score is inactive: 1.02.
Turning to SEELHYYVQNH [UQCRC2_Y207_F208Y], the enrichment score was inactive: 0.843.
On to DGTIVCTGLET [USH2A_Y4487_Y4487C], for which the enrichment score is inactive: 0.715.

In a further test the target is SHP2 N-SH2 domain wild-type. The test is described as above. The settings on record: peptide library: pTyr-Var.
Turning to RRIHSYRCHLW [VHL_Y112_G114C], the enrichment score was inactive: 0.293.
Same read-out and setting: next, KDFTIHNPNLL [VANGL1_Y290_Y290H]: inactive: 1.08; ISSLDYISKSK [VAV3_Y294_T298S]: inactive: 0.821.
On the same count and under the same terms, with AEPNIYQEKLS [USP54_Y1233_D1231N] the figure was inactive: 0.602; with TPGPNYCPGFN [USH2A_Y463_R464C_YF], inactive: 0.692; with IGMIIYFARKA [VCAM1_Y718], inactive: 0.671.
Still for that read-out and setting: next, SHNELYFEAAE [VANGL1_Y344_E347A_YF]: inactive: 0.786; LNEVGYDDIGG [VCP_Y203]: inactive: 0.777; VFDMLYQVANL [USP24_Y1087_L1089V]: inactive: 1.42.
As for KLKRSYPSPDI [USP8_Y717_S718P], the enrichment score is inactive: 0.629.
Same read-out and setting: with NSRYTYKLEVK [USH2A_Y3747] the figure was inactive: 0.678; with RRIHSYRRHLW [VHL_Y112_G114R], inactive: 0.245; with NDDDVYRSLEE [VAV2_Y142], inactive: 0.541.
Still for that read-out and setting: with AEPDIYQEKLS [USP54_Y1233] the figure was inactive: 0.732.
On the same count and under the same terms, with ASELGYQFQAI [UROD_Y133_V134Q] the figure was inactive: 0.877.
For the molecule HNELFYEAAEH [VANGL1_Y345_E347A_YF], the enrichment score was inactive: 0.912.
Still for that read-out and setting: with LHAAAYRNALA [UQCRC2_Y182] the figure was inactive: 0.586; with SEELHYYVQNH [UQCRC2_Y207_F208Y], inactive: 1.11; with DGTIVCTGLET [USH2A_Y4487_Y4487C], inactive: 0.812.
